Laboratory results: patent US11542275B2, “Substituted imidazolidin-2-one derivatives as PRMT5 inhibitors” (Aurigene Discovery Technologies Limited, priority 2018, dated 2023)

Biological target: PRMT5/MEP50 Complex (Homo sapiens (Human), UniProt O14744)
Assay: PRMT5 inhibition based on TR-FRET assay
Type: biochemical
Details: 32 nM PRMT5:MEP50 complex, 50 nM Histone-H4 peptide, 1 μM SAM, 90 minutes at room temperature
Excerpt: Protein arginine methyltransferase 5 (PRMT5) is a type II arginine methyltransferase that catalyze mono- and symmetric demethylation on arginine residues of histone or non-histone proteins in presence of S-adenosylmethionine (AdoMet or SAM) a cofactor responsible for donating the methyl group. PRMT5 is reported to be overexpressed in several human cancers. To identify compounds that inhibit the PRMT5 and decrease its activity, a TR-FRET based assay has been established. Time-resolved fluorescence resonance energy transfer (TR-FRET) HTS assays are homogeneous proximity assays where the interaction of two dye-labeled binding partners is detected by the energy transfer between a donor and an acceptor dye, and the subsequent light emission by the acceptor dye. PRMT5 catalyzes Histone H4 peptide which is biotin tagged to the Lysine amino acid at carboxyl end, in presence of S-adenosyl-1-methionine (SAM) to methylate the peptide. The antibody specific to mono methylated H4 peptide (H4R3) with Ig conjugate binds to the methylated peptide, indirectly binding to the Europium lanthanide. SureLight Allophycocyanin-Streptavidin binds to the biotin tag of the peptide, therefore accepting the energy transferred from the Europium lanthanide. This energy transfer between Europium to SureLight Allophycocyanin is a direct measure of the activity/inhibition of the PRMT5 enzyme.
Assay buffer: 20 mM BICINE (pH 7.6), 25 mM NaCl, 2 mM DTT, 0.01% Tween-20 and 0.01% BSA.
The compound dilutions were prepared as 7.5% DMSO stock solutions in assay buffer. To 2 μL (7.5×) of test compound, 5 μL of PRMT5 enzyme prepared in assay buffer (Final concentration of 32 nM in 15 μL reaction volume) was added and allowed for 30 minutes pre-incubation time in a white polystyrene 384-well plate at room temperature. […] The plates were then read on Victor-3 with Excitation at 340 nm and Emissions collected at 615 and 665 nm in TR-FRET protocol. […]

| SMILES | IC50 [µM] |
| --- | --- |
| O=C1N(Cc2ccc(N3C4CCC3COC4)cn2)CCN1CC(O)CNC1Cc2ccccc2C1 (stereo not drawn) [Compound 86, 1-((5-(3-oxa-8-azabicyclo[3.2.1]octan-8-yl)pyridin-2-yl)methyl)-3-(3-((2,3-dihydro-1H-inden-2-yl)amino)-2-hydroxypropyl)imidazolidin-2-one] | 0.061 |
| CC(=O)N1CC(c2ccc(CN3CCN(C[C@H](O)CN4CCc5ccccc5C4)C3=O)nc2)C1 [Compound 79, (R)-1-((5-(1-acetylazetidin-3-yl)pyridin-2-yl)methyl)-3-(3-(3,4-dihydroisoquinolin-2(1H)-yl)-2-hydroxypropyl)imidazolidin-2-one] | 0.041 |
| CC(=O)N1CCN(c2ccc(CN3CCN(CC(O)CN4Cc5ccccc5C4)C3=O)nc2)CC1 (stereo not drawn) [Compound 84, 1-((5-(4-acetylpiperazin-1-yl)pyridin-2-yl)methyl)-3-(2-hydroxy-3-(isoindolin-2-yl)propyl)imidazolidin-2-one] | 0.197 |
